As a reminder, the AC50 is the concentration giving half of the maximal activity seen.

This assay can be described thus: qHTS Assay for Lipid Storage Modulators (AID 1519). As to conditions: Drosophila S3 cells, BODIPY lipid droplet/cell ratio, laser cytometry, cells loaded with oleic acid. A digest of the protocol:
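Cells seeded at 5,000 per well were treated with compounds over a concentration series and loaded with oleic acid (400 uM, as added). Lipid droplet fluorescence (488 nm excitation, 500-530 nm channel) was read by laser-scanning cytometry and normalized to 20 uM Triacsin C.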
(In general: In qHTS, concentration-response curves come from the screen itself.)

Setting [1] is: measured here: cell count channel max response.
Where [2] appears, read: measured here: lipid (BODIPY) channel AC50.
Setting [3] is: measured here: lipid channel max response.
The mark [4] stands for this setting: measured here: cell number channel AC50.

Where “and” joins values, the source holds several entries; their conditions need not be identical. Equal entries are not always repeated. The list shows a part of the results. Shown are side measurements of this screen, not its main read-out; they come without a call. Compounds called inactive in the main read-out are mostly missing here. Potencies come from curve fits of mixed quality, noted in brackets.
Tags tell the direction and shape of the fitted curve.

For the compound `O=C(c1ccco1)N1CCC2(CCCN(c3ccccc3)C2)CC1`, the max response came out at 21.2% under setting [1] and 21% under setting [3]. The AC50 under setting [2] is 0.316 µM [rising, partial curve, poor fit].

Take `O=c1cnc2cnc(Oc3ccccc3)nc2n1C1CC1`: the max response was 26.6% under setting [1] and 31.7% under setting [3]. Moreover, under setting [2], the half-maximal activity concentration (AC50) is 20 µM [rising, single point].

`CCNc1ncc2nc(-c3ccc(OC)cc3)c(=O)n(-c3ccc(OC)cc3)c2n1`: the max response is, setting by setting: under setting [1], 17.2%; under setting [3], 24.7%. Also, under setting [2], the AC50 was 0.0398 µM [rising, full curve].

As to `CNC1C(O)C(O[C@H]2C(O)[C@@H](OC3OC(CN)=CCC3N)[C@H](N)C[C@@H]2N)OC[C@]1(C)O` (stereo partly specified), the max response is, setting by setting: under setting [1], 28.6%; under setting [3], 45.2%. Moreover, the AC50 under setting [2] is 39.8 µM [rising, partial curve].

With `COc1ncc2ncc(=O)n(C3CC3)c2n1`, the max response reads like this: under setting [1], 26.2%; under setting [3], 31.7%. Further, the concentration at half-maximal activity (AC50) under setting [2] is 25.1 µM [rising, single point].

With `O=[N+]([O-])c1ccc(CSc2ncnc3c2ncn3[C@@H]2O[C@H](CO)[C@H](O)[C@H]2O)cc1`, the max response is, setting by setting: under setting [1], 44.1%; under setting [3], 44.7%. Besides, under setting [2], the AC50 is 3.16 µM [falling, full curve, poor fit].

Regarding `CC(=O)OC1CC(OC(C)=O)[C@]2(C)C(CC(OC(C)=O)[C@@]3(C)C4=CC(=O)OC(c5ccoc5)[C@]4(C)CCC32)C1(C)C` (stereo partly specified), the max response runs as follows: under setting [1], -4.04%; under setting [3], -37.5%. The concentration at half-maximal activity (AC50) under setting [2] was 14.1 µM [falling, partial curve].

Take `CC1CC2C(C(O)C[C@]3(C)C2CC[C@]3(O)C(=O)CO)[C@]2(C)C=CC(=O)C=C12` (stereo partly specified): the max response by setting is: under setting [1], 22.6%; under setting [3], 40%. For the same compound, the AC50 under setting [2] was 39.8 µM [rising, single point].

Consider `O=S(=O)(c1ccccc1)N1CCC2(CCN(c3ccccc3)CC2)CC1`, for which the max response came out at 16% under setting [1] and 24.1% under setting [3]. Besides, the AC50 under setting [2] was 1.12 µM [rising, full curve, poor fit].

For `CC1/C=C/C=C/C=C/C=C/C=C/C=C/C=C/C(OC2OC(C)C(O)C(N)C2O)CC2O[C@@](O)(CC(O)CC(O)C(O)CCC(O)CC(O)CC(=O)OC(C)[C@H](C)C1O)CC(O)C2C(=O)O` (stereo partly specified), the max response by setting is: under setting [1], 16%; under setting [3], 42.5%. Also, the AC50 under setting [2] is 35.5 µM [rising, single point].

Regarding `COc1cccc(-c2cncnc2NCc2cnc(C)cn2)c1`, the max response reads like this: under setting [1], 23.9%; under setting [3], 29.4%. Moreover, under setting [2], the concentration at half-maximal activity (AC50) is 2 µM [rising, full curve, poor fit].

On to `COCCn1c(=O)c(-c2cc(F)cc(F)c2)nc2cnc(OC)nc21`, for which the max response reads like this: under setting [1], 29.7%; under setting [3], 37.8%. Further, the AC50 under setting [2] was 0.562 µM [rising, full curve].

`O=c1c(-c2cccs2)nc2cnc(Nc3ccccc3)nc2n1C[C@H]1CCCO1`: the max response is 15.9% under setting [1] and -40.5% under setting [3]. For the same compound, the AC50 under setting [2] was 22.4 µM [falling, single point].

As for `Cc1nc2cnc(Oc3ccccc3)nc2n(CCC#N)c1=O`, the max response reads like this: under setting [1], 29.6%; under setting [3], 36.8%. The AC50 under setting [2] was 0.891 µM [rising, full curve].

In the case of `NCCCCN`, the max response is 24.2% and 42.3% under setting [1]; 32% and 43.6% under setting [3]. For the same compound, under setting [2], the AC50 was 39.8 µM [rising, single point] and 44.7 µM [rising, single point].

For the compound `CC(=O)OC1CCC2(C)C(=CCC3C2CCC2(C)C3C[C@@H]3O[C@]32C(C)=O)C1` (stereo partly specified), the max response under setting [1] worked out at 22% and the max response under setting [3] was found to be 30.1%. For the same compound, under setting [2], the AC50 was 0.0355 µM [rising, full curve, poor fit].

On to `CC(=O)OCC1=C(C(=O)O)N2C(=O)C(NC(=O)CSc3ccncc3)[C@@H]2SC1` (stereo partly specified), for which the max response is, setting by setting: under setting [1], 17.4%; under setting [3], 32.5%. In addition, the AC50 under setting [2] was 39.8 µM [rising, single point].

Regarding `COc1ccc(-c2nc3cnc(OC)nc3n(-c3ccccc3)c2=O)cc1`, the max response under setting [1] was 46.6% and the max response under setting [3] came out at 4.02%. Also, under setting [4], the AC50 is 25.1 µM [rising, single point].

`COc1cccc(C=NC=Nc2cccc(OC)c2)c1`: the max response is 81.5% under setting [1] and 100% under setting [3]. The AC50 under setting [4] was 28.2 µM [rising, partial curve].

With `O=C1OC(C(O)CO)C(O)=C1O` (stereo unspecified), the max response came out at 25.4% under setting [1] and 37.6% under setting [3]. The AC50 under setting [2] was 15.8 µM [rising, partial curve, poor fit].

In the case of `Cc1cnc(CNc2ncncc2-c2cccc(NS(C)(=O)=O)c2)cn1`, the max response came to 22.7% under setting [1] and 27.9% under setting [3]. Moreover, under setting [2], the AC50 is 2.51 µM [rising, full curve, poor fit].

As for `COc1cc(/C=C(\C#N)C(N)=O)cc(CSc2nc3ccccc3s2)c1O`, the max response is, setting by setting: under setting [1], 33.7%; under setting [3], -59.3%. In addition, the concentration at half-maximal activity (AC50) under setting [4] is 15.8 µM [rising, partial curve, poor fit].

For the compound `COCCn1c(=O)c(CCc2ccccc2)nc2cncnc21`, the max response was 18.2% under setting [1] and 23.9% under setting [3]. Further, the AC50 under setting [2] was 3.55 µM [rising, full curve, poor fit].

On to `COCCn1c(=O)c(-c2ccccc2)nc2cnc(Oc3ccc(OC)cc3)nc21`, for which the max response under setting [1] was -5.68% and the max response under setting [3] is -5.45%. The AC50 under setting [2] was 1.26 µM [rising, full curve, poor fit].

Regarding `CCCCOc1ccc(OCCCN2CCOCC2)cc1`, the max response under setting [1] was 25% and the max response under setting [3] worked out at 54.1%. The AC50 under setting [2] is 39.8 µM [rising, single point].

Consider `COc1cccc(Nc2ncc3ncc(=O)n(CCC#N)c3n2)c1`, for which the max response runs as follows: under setting [1], 7.06%; under setting [3], 14.3%. The half-maximal activity concentration (AC50) under setting [2] was 0.0794 µM [rising, full curve, poor fit].

With `CN(C)C(=O)c1ccc(-c2nccc(NCc3cccs3)n2)cc1`, the max response by setting is: under setting [1], 10.8%; under setting [3], 16.8%. In addition, the AC50 under setting [2] was 0.794 µM [rising, full curve].

Values taken from PubChem BioAssay (NCATS).
